PubChem BioAssay AID651820 (National Center for Advancing Translational Sciences (NCATS), 2012)
The campaign covered roughly 340,000 compounds. About 12,000 (3.5%) were called active. The inconclusive results got no clear call from the source; some entries with a clear call stand among them for comparison. The call rests on the fitted dose curve; in most records, active means well fitted inhibition curve with a large enough effect; inconclusive means small, poorly fitted or top-dose-only effect, or another doubt; inactive means no such curve, though single readings can be large or run the other way. Potencies of inconclusive entries are left out as doubtful fits.

Test: qHTS Assay for Inhibitors of Hepatitis C Virus (HCV)
Settings: Huh7.5.1 HCVcc-Cre (HCVcc is cell-culture hepatitis C virus) infection, luciferase reporter, 44 h; activity change, negative = inhibition: at 41.8 µM (top of the series) unless noted
How it was run: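 Antiviral activity was scored by luciferase reporter output from cells infected with HCVcc-Cre (~0.5 moi) in presence of compound, 44 h infection period, cells seeded 1,000/well 4 h prior.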
On the % scale 0 is the no-effect control and ±100 the full control effect; potency means the concentration at half of the fitted maximal effect; tags describe the fitted curve by direction and shape.

Compound | Potency | activity change, negative = inhibition
COc1cc(C(=O)Nc2ccc3c(c2)OCCO3)ccc1OC(C)C | active: 12.6 µM | –
Cc1ccc(N=Nc2c(C)[nH]n(C(N)=S)c2=O)cc1C | inactive | –
CC(C)Cn1c(N)c(C(=O)COC(=O)c2cnc(Cl)c(Cl)c2)c(=O)n(C)c1=O | active: 15.8 µM | –
COC(=O)c1ccc(CSc2ccc3nnc(-c4cccnc4)n3n2)o1 | inactive | –
COc1ccc2ccccc2c1C1NC(=O)NC(C)=C1[N+](=O)[O-] (configuration not stated) | inactive | –
Cc1ccc(C(=O)Nc2cccc(C(=O)NCc3ccccc3)c2)o1 | inconclusive [inhibitor, single point] | –
CCOc1ccc2c(c1)c(C(C)=O)c(C)n2Cc1ccco1 | inconclusive [inhibitor, partial curve] | –
OC1(c2ccccc2)CC(c2ccccc2)c2ccccc2O1 (configuration not stated) | – | inconclusive: -65% [inhibitor]
CCC1(C)Cc2c(sc3[nH]c(=S)n(Cc4ccccc4)c(=O)c23)CO1 (configuration not stated) | inconclusive [inhibitor, single point] | –
CCNc1nc2cccnc2s1 | inactive | –
O=C(CSc1nnc(-c2cccs2)n1Cc1ccco1)Nc1ccc2c(c1)OCO2 | inactive | –
CCN(CC)S(=O)(=O)c1ccc(N2CCOCC2)c(NC(=O)c2ccc3ccccc3c2)c1 | inactive | –
CCOc1ccc(-c2cc(C)[n+](CCc3ccc(OC)c(OC)c3)c(-c3ccc(OCC)cc3)c2)cc1 | active: 5.62 µM | –
NC(=O)C1(NC2CCCCC2)CCN(Cc2ccccc2)CC1 | inconclusive [inhibitor, partial curve, poor fit] | –
Cc1cc(C)c(C#N)c(SCc2cn3c(C)cccc3n2)n1 | inconclusive [inhibitor, partial curve, poor fit] | –
C[N+]1(C)CC[C@H](OC(=O)[C@@](O)(c2ccccc2)C2CCCC2)C1 | inactive | –
CCOC(=O)CCC(=O)OCC(=O)NC(C)C1CC2CCC1C2 (configuration not stated) | inconclusive [inhibitor, single point] | –
COc1ccc(C(C(=O)NC2CCCC2)N(C(=O)c2snc(C(N)=O)c2N)c2cc(C)ccc2OC)cc1OC (configuration not stated) | inactive | –
Cc1ccc(C(=O)COC(=O)CNC(=O)c2cccs2)cc1 | inactive | –
Clc1cncc(Cl)c1N/N=C/c1ccncc1 | inconclusive [inhibitor, partial curve] | –
COc1cc(-c2cc(C(=O)NCc3ccc(S(N)(=O)=O)cc3)c3ccccc3n2)cc(OC)c1OC | inconclusive [inhibitor, partial curve, poor fit] | –
O=C(NCCOc1ccc(Cl)cc1)C1CC(=O)N(c2ccc3c(c2)OCCO3)C1 (configuration not stated) | inconclusive [inhibitor, single point] | –
CCn1c2ccccc2c2nnc(SCc3ccccc3)nc21 | inconclusive [inhibitor, single point] | –
CCCn1c(=O)c2ccccc2n2c(SCC(=O)N3CCc4ccccc4C3)nnc12 | inconclusive [inhibitor, single point] | –

Compound | Potency | activity change, negative = inhibition
N=C(N)Sc1nc(N2CCCCC2)nc(N2CCCCC2)n1 | inactive | –
Cc1c(NS(=O)(=O)c2ccccc2)cc(Cl)c(O)c1C | inconclusive [inhibitor, single point] | –
COc1ccc(NC(=S)N(CCc2c(C)[nH]c3ccc(C)cc23)Cc2cccnc2)cc1 | inconclusive [inhibitor, partial curve] | –
CCOc1ccc(S(=O)(=O)N2CCN(C(=O)c3ccc(C)c(S(=O)(=O)N4CCOCC4)c3)CC2)cc1 | inconclusive [inhibitor, partial curve, poor fit] | –
Cc1onc(-c2ccccc2)c1C(=O)N/N=C/c1c(F)cccc1Cl | inactive | –
CC(C)N1CC(C(=O)Nc2ccc(F)c(Cl)c2)CC1=O (configuration not stated) | inactive | –
CC(=O)N1CCN(Cc2cc(=O)n3cc(Cl)c(C)c(Cl)c3n2)CC1 | inconclusive [inhibitor, single point] | –
O=C(COC(=O)C1C2CC3OC(=O)C1C3C2)Nc1ccccc1 (configuration not stated) | inactive | –
O=C(Cn1cnc2c(cnn2-c2ccccc2Cl)c1=O)N1CCc2ccccc21 | inactive | –
Cc1cc(C)cc(-n2c3nc4ccccc4nc3c3c(=O)n(Cc4ccco4)cnc32)c1 | inconclusive [inhibitor, partial curve, poor fit] | –
CCOC(=O)c1[nH]c2c(c1-c1ccccc1)C(=O)CC(c1ccc(Cl)cc1)C2 (configuration not stated) | inactive | –
CC(CO)Nc1nc(SCc2ccccc2)nc2sc3c(c12)CCC3 (configuration not stated) | active: 12.6 µM | –
Cc1ccc(OCC(=O)N(C)CC(=O)Nc2ccccc2Cl)c([N+](=O)[O-])n1 | inactive | –
Cc1ccc(-c2nnc(N3CCOCC3)c3ccccc23)cc1S(N)(=O)=O | inactive | –
Cc1sc2ncnc(NCC(c3ccccc3)N(C)C)c2c1C (configuration not stated) | inconclusive [inhibitor, single point] | –
CCOC(=O)c1c(NC(=O)CSC(=S)N2CCOCC2)sc(C)c1C | inconclusive [inhibitor, partial curve] | –
COc1ccc(NS(=O)(=O)c2cc(NC(=O)c3sccc3C)ccc2N2CCOCC2)cc1 | inconclusive [inhibitor, single point] | –
CCOC(=O)C(C)(C)Sc1nc2c(cnn2-c2ccc(C)cc2)c(=O)[nH]1 | inconclusive [inhibitor, partial curve] | –
COc1cc(NC(=O)c2ccc(Cl)cc2)c2ncccc2c1 | inconclusive [inhibitor, single point] | –
O=C(CNC(=O)c1[nH]cnc1C(=O)NC(c1ccccc1)c1ccccc1)OCc1ccccc1 | inactive | –
COc1ccc(C2=NCC(CSc3nnc(-c4ccc5c(c4)OCO5)o3)S2)cc1 (configuration not stated) | inconclusive [inhibitor, single point] | –
O=C(OCC(=O)N(Cc1ccccc1)Cc1ccccc1)c1ccccc1O | inconclusive [inhibitor, single point] | –
C=CCN(c1ccc(C(=O)Nc2ccc(C)c(C)c2)cc1)S(C)(=O)=O | inconclusive [inhibitor, partial curve] | –
